# Measured values: the supplement of paper PMC10037445
# Where “and” joins values, the source holds several entries; their conditions need not be identical. Equal entries are not always repeated. Over roughly 2,900 compounds, “IRF Lucia reporter activity, fold change vs agonist alone” has its median near 0.9; the highest 2% begin near 2.8. Some of the results follow.
# What was measured:
# [1] = system: RAW-Dual; test: IRF Lucia reporter activity, fold change vs agonist alone; cytotoxicity flag (confluency mask): not cytotoxic; higher = enhanced IRF activity
# Procedure, shortened: (§1)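 RAW-Dual macrophages were seeded in DMEM at 50,000 cells/well in 384-well plates, given 50 nL of library stock by pin tool, and given a PRR agonist 1 h later. Plates were held at 37 °C, 5% CO2 for 20 hours, after which supernatant was read for IRF by QuantiLuc luminescence and for NF-κB by QuantiBlue absorbance at 620 nm. Reporter activity is expressed as fold change over wells that received agonist alone. A well was called cytotoxic when IncuCyte confluency fell below 70% of agonist controls in both mask sets.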
# [2] = system: RAW-Dual; test: IRF Lucia reporter activity, fold change vs agonist alone; higher = enhanced IRF activity; conditions: agonist: MPLA (TLR4) […]
# Procedure, shortened: as §1
# [3] = system: RAW-Dual; test: IRF Lucia reporter activity, fold change vs agonist alone; cytotoxicity flag (confluency mask): cytotoxic (confluency <70% of control); higher = enhanced IRF activity
# Procedure, shortened: as §1
# [4] = agonist: 3'3'-cGAMP (STING) 10 ug/mL
# [5] = library stock concentration (final ~1000-fold dilution): 10 mM, cytotoxicity flag (confluency mask): not cytotoxic
smiles,measurement,setting,value
CN(C)CCOC(c1ccc(Cl)cc1)c1ccccn1.O=C(O)/C=C\C(=O)O (stereo not drawn) (library stock concentration (final ~1000-fold dilution): 10 mM),IRF Lucia reporter activity,[1]; [4],0.901
same,IRF Lucia reporter activity,[1]; agonist: LPS (TLR4) 0.1 ug/mL,1.28
CN(C)CCOC(c1ccc(Cl)cc1)c1ccccn1.O=C(O)/C=C\C(=O)O (stereo not drawn),IRF Lucia reporter activity,[2]; [5],0.953
O=C(Nc1ncc([N+](=O)[O-])s1)c1ccccc1O,IRF Lucia reporter activity,[2]; [5],1.03
O=C(Nc1ncc([N+](=O)[O-])s1)c1ccccc1O (library stock concentration (final ~1000-fold dilution): 10 mM),IRF Lucia reporter activity,[1]; [4],0.685
same,IRF Lucia reporter activity,[1]; agonist: LPS (TLR4) 0.1 ug/mL,0.856
CN(CCN1CCC(OC(=O)Nc2ccccc2-c2ccccc2)CC1)C(=O)c1ccc(CN2CCC(C(N)=O)CC2)cc1,IRF Lucia reporter activity,[2]; [5],0.867
CN(CCN1CCC(OC(=O)Nc2ccccc2-c2ccccc2)CC1)C(=O)c1ccc(CN2CCC(C(N)=O)CC2)cc1 (library stock concentration (final ~1000-fold dilution): 10 mM),IRF Lucia reporter activity,[1]; [4],0.986
same,IRF Lucia reporter activity,[1]; agonist: LPS (TLR4) 0.1 ug/mL,0.829
C=CCN1CCCC1CNC(=O)c1cc2nn[nH]c2cc1OC.Cl (stereo not drawn),IRF Lucia reporter activity,[2]; [5],1.15
C=CCN1CCCC1CNC(=O)c1cc2nn[nH]c2cc1OC.Cl (stereo not drawn) (library stock concentration (final ~1000-fold dilution): 10 mM),IRF Lucia reporter activity,[1]; [4],1.09
same,IRF Lucia reporter activity,[1]; agonist: LPS (TLR4) 0.1 ug/mL,1.19
O=C(Nc1cc(C(F)(F)F)ccc1C(F)(F)F)c1cc(Br)ccc1O (library stock concentration (final ~1000-fold dilution): 10 mM),IRF Lucia reporter activity,[3]; [4],0.0368
same,IRF Lucia reporter activity,[3]; agonist: LPS (TLR4) 0.1 ug/mL,4.46
CCCCNNC(=O)c1ccc(Br)cc1,IRF Lucia reporter activity,[2]; [5],0.401
CCCCNNC(=O)c1ccc(Br)cc1 (library stock concentration (final ~1000-fold dilution): 10 mM),IRF Lucia reporter activity,[1]; [4],0.408
same,IRF Lucia reporter activity,[1]; agonist: LPS (TLR4) 0.1 ug/mL,0.355
CNc1nc(Nc2cnn(C3CCN(C4COC4)CC3F)c2Cl)ncc1C(F)(F)F (stereo not drawn),IRF Lucia reporter activity,[2]; [5],0.229
CNc1nc(Nc2cnn(C3CCN(C4COC4)CC3F)c2Cl)ncc1C(F)(F)F (stereo not drawn) (library stock concentration (final ~1000-fold dilution): 10 mM),IRF Lucia reporter activity,[1]; [4],0.386
same,IRF Lucia reporter activity,[1]; agonist: LPS (TLR4) 0.1 ug/mL,0.0478
CCOC(=O)C(CCc1ccccc1)NC(C)C(=O)N1C(C(=O)O)CC2CCCC21 (stereo not drawn) (library stock concentration (final ~1000-fold dilution): 10 mM),IRF Lucia reporter activity,[1]; [4],0.976
same,IRF Lucia reporter activity,[1]; agonist: LPS (TLR4) 0.1 ug/mL,1.01
CCOC(=O)C(CCc1ccccc1)NC(C)C(=O)N1C(C(=O)O)CC2CCCC21 (stereo not drawn),IRF Lucia reporter activity,[2]; [5],0.729
Nc1ccc(S(=O)(=O)c2ccc(N)cc2)cc1 (library stock concentration (final ~1000-fold dilution): 10 mM),IRF Lucia reporter activity,[1]; [4],0.961
same,IRF Lucia reporter activity,[1]; agonist: LPS (TLR4) 0.1 ug/mL,0.883
O=C(c1ccc(C(=O)N2CCC(N3CCCC3)CC2)c(Nc2ccccc2)c1)N1CCC(N2CCCC2)CC1,IRF Lucia reporter activity,[2]; [5],0.954
O=C(c1ccc(C(=O)N2CCC(N3CCCC3)CC2)c(Nc2ccccc2)c1)N1CCC(N2CCCC2)CC1 (library stock concentration (final ~1000-fold dilution): 10 mM),IRF Lucia reporter activity,[1]; [4],1.06
same,IRF Lucia reporter activity,[1]; agonist: LPS (TLR4) 0.1 ug/mL,0.99
N#CCC1(n2cc(-c3ncnc4[nH]ccc34)cn2)CN(C2CCN(C(=O)c3ccnc(C(F)(F)F)c3F)CC2)C1 (library stock concentration (final ~1000-fold dilution): 10 mM),IRF Lucia reporter activity,[1]; [4],0.457
same,IRF Lucia reporter activity,[1]; agonist: LPS (TLR4) 0.1 ug/mL,0.842
OCCN1CCN(CCCN2c3ccccc3Sc3ccc(Cl)cc32)CC1 (library stock concentration (final ~1000-fold dilution): 10 mM),IRF Lucia reporter activity,[3]; [4],0.511
same,IRF Lucia reporter activity,[3]; agonist: LPS (TLR4) 0.1 ug/mL,0.793
OCCN1CCN(CCCN2c3ccccc3Sc3ccc(Cl)cc32)CC1,IRF Lucia reporter activity,"[2]; library stock concentration (final ~1000-fold dilution): 10 mM, cytotoxicity flag (confluency mask): cytotoxic (confluency <70% of control)",1.48
COc1ccc(CCC(=O)N(c2nccc3ccccc23)C2CCCNC2)cc1 (stereo not drawn) (library stock concentration (final ~1000-fold dilution): 10 mM),IRF Lucia reporter activity,[1]; [4],0.302
same,IRF Lucia reporter activity,[1]; agonist: LPS (TLR4) 0.1 ug/mL,1.26
CC(C)CN(CC(O)C(Cc1ccccc1)NC(=O)OC1COC2OCCC12)S(=O)(=O)c1ccc(N)cc1.CCO (stereo not drawn) (library stock concentration (final ~1000-fold dilution): 10 mM),IRF Lucia reporter activity,[1]; [4],1.05
same,IRF Lucia reporter activity,[1]; agonist: LPS (TLR4) 0.1 ug/mL,0.964
CC(C)CN(CC(O)C(Cc1ccccc1)NC(=O)OC1COC2OCCC12)S(=O)(=O)c1ccc(N)cc1.CCO (stereo not drawn),IRF Lucia reporter activity,[2]; [5],1.12
CCCCS(=O)c1sc2nc(-c3cccs3)cc(-c3ccccc3)c2c1N (stereo not drawn) (library stock concentration (final ~1000-fold dilution): 10 mM),IRF Lucia reporter activity,[1]; [4],0.181
same,IRF Lucia reporter activity,[1]; agonist: LPS (TLR4) 0.1 ug/mL,0.663
Nc1nc2[nH]cc(CCc3ccc(C(=O)NC(CCC(=O)O)C(=O)O)cc3)c2c(=O)[nH]1 (stereo not drawn) (library stock concentration (final ~1000-fold dilution): 10 mM water),IRF Lucia reporter activity,[1]; [4],1.15 and 0.82
same,IRF Lucia reporter activity,[1]; agonist: LPS (TLR4) 0.1 ug/mL,0.998 and 0.771
Nc1nc2[nH]cc(CCc3ccc(C(=O)NC(CCC(=O)O)C(=O)O)cc3)c2c(=O)[nH]1 (stereo not drawn),IRF Lucia reporter activity,"[2]; library stock concentration (final ~1000-fold dilution): 10 mM water, cytotoxicity flag (confluency mask): not cytotoxic",1.12
